The target in assay [1] is T1, His-tagged CD47 extracellular domain (ECD) protein (Abclonal, CAT #RP01306) (human, UniProt Q08722 part only).
T1 construct: extracellular domain; Bought; also called recombinant human CD47 protein with His-tag; His-tag human CD47 ECD protein
As to the kind of experiment: ELISA against immobilized human CD47, pH 6.0 and pH 7.3. (In general: An ELISA detects its analyte on a solid surface through an enzyme-linked reagent.)

Assay [2] has as its target T2, human CD47 (cluster of differentiation 47), on cells (human, UniProt Q08722).
T2 construct: whole, on cells; also called IAP; integrin-associated protein
Kind of assay: FACS on Raji cells.

The target in assay [3] is T2, human CD47 (cluster of differentiation …). Kind of assay: FACS on Raji cells, pH 7.3 and pH 6.0.
The target is the same in assay [4]. As to the kind of experiment: FACS on Raji cells, acidic and physiological pH.
Assay [5] shares this target. Kind of assay: FACS on primary human T cells.
Assay [6] shares this target. Kind of assay: FACS on primary human platelets, pH 7.3. How it is done:
Human primary platelets were seeded into 96-well plate at 1×10⁶/well and incubated with Fc blocking antibody at room temperature. […] After washing the platelets with 1×PBS+2% FBS at pH 7.3, FITC-labelled anti-human IgG Fc secondary antibody (Abcam, CAT #ab6854) were added and incubated at 4° C. for 30 minutes at pH 7.3. After washing, the platelets were then analyzed by FACS in 1×PBS+2% FBS at pH 7.3.

Assay [7] shares this target. As to the kind of experiment: cell-based or functional assay.
Assay [8] addresses T1, His-tagged CD47 extracellular domain …. As to the kind of experiment: ELISA, coated Fc fusion, His-tagged CD47 ECD in solution (monovalent), pH 7.2.

Residue numbers refer to the chain shown, from its start. In names and notes the source's numbering stands.

The text below walks through data of patent publication US20260274921A1 (ADAPTOCUE, published 2026).

B1: SIN-368, SIRPαV2 IgV K53H-K53H-IgG1 Fc (Fc fusion)
chain: not shown
notes: four IgV monomers in all; also called tetravalent SIRPαV2 IgV K53H-IgG1 Fc fusion protein
B1: the binding result in assay [1] is listed as “binds”.

B2: SIN-325, SIRPβ2 H101D IgV-IgG1 Fc (Fc fusion)
chain: EEELQVIQPDKSISVAAGESATLHCTVTSLIPVGPIQWFRGAGPGRELIYNQKEGHFPRVTTVSDLTKRNNMDFSIRISNITPADAGTYYCVKFRKGSPDDVEFKSGAGTELSVRAKPS[human IgG1 Fc not printed]
notes: also called SIPRβ2 H101D IgV-IgG1 Fc
As to B2, the binding result in assay [2] was “binds”.

B3: SIN-328, SIRPβ2 K68H + H101D IgV-IgG1 Fc (Fc fusion)
chain: B2 chain with K68H
Take B3: the binding result in assay [3] is “binds”.

B4: SIN-329, SIRPβ2 Q52H + H101D IgV-IgG1 Fc (Fc fusion)
chain: B2 chain with Q52H
B4: the binding result in assay [3] is “binds”.

B5: SIN-318, SIRPγ WT IgV-IgG1 Fc (Fc fusion)
chain: EEELQMIQPEKLLLVTVGKTATLHCTVTSLLPVGPVLWFRGVGPGRELIYNQKEGHFPRVTTVSDLTKRNNMDFSIRISSITPADVGTYYCVKFRKGSPENVEFKSGPGTEMALGAKPS[human IgG1 Fc not printed]
In the case of B5, the binding result in assay [2] is “binds”.

B6: SIN-321, SIRPγ K68H IgV-IgG1 Fc (Fc fusion)
chain: B5 chain with K68H
In the case of B6, the binding result in assay [3] is on record as “binds”.

B7: SIN-323, SIRPγ K53H + L37Q + N101D IgV-IgG1 Fc (Fc fusion)
chain: B5 chain with L37Q, K53H, N101D
Turning to B7, in assay [4], the binding result is given as “binds”.

B8: SIN-320, SIRPγ R69H IgV-IgG1 Fc (Fc fusion)
chain: B5 chain with R69H
Regarding B8, the binding result in assay [3] is on record as “binds”.

B9: SIN-361, SIRPγ K53H + N101D IgV-IgG1 Fc (Fc fusion)
chain: B5 chain with K53H, N101D
For the molecule B9, in assay [4], the binding result is listed as “binds”.

B10: SIN-319, SIRPγ K53H IgV-IgG1 Fc (Fc fusion)
chain: B5 chain with K53H
For B10, the binding result in assay [3] was “binds”.

B11: SIN-322, SIRPγ Q52H IgV-IgG1 Fc (Fc fusion)
chain: B5 chain with Q52H
For B11, in assay [3], the binding result is listed as “binds”.

B12: SIN-324, SIRPγ R69H + L37Q + N101D IgV-IgG1 Fc (Fc fusion)
chain: B5 chain with L37Q, R69H, N101D
In the case of B12, the binding result in assay [2] is recorded as “binds”.

B13: SIN-300, wild type SIRPαV2 IgV-IgG1 Fc fusion protein (Fc fusion)
chain: not shown
notes: homodimer, bivalent (format FV-2); also called SIRPαV2 WT IgV-IgG1 Fc
On to B13, for which the “peak binding MFI relative to that of the Hu5F9 analog” value in assay [5] is < 0.5 fold of Hu5F9 analog; in assay [6], < 0.333 fold of Hu5F9 analog. In addition, the “ADCC activity, Jurkat-NFAT-Luc2-CD16 V158 reporter assay against Raji cells, pH 6.0” value in assay [7] was ~0.333 fold of the peak at pH 7.2.

B14: SIN-303, SIRPαV2 Q52H IgV-IgG1 Fc (Fc fusion)
chain: not shown
notes: format FV-2
Turning to B14, the binding result in assay [8] is reported as “binds”.

B15: SIN-304, SIRPαV2 K68H IgV-IgG1 Fc (Fc fusion)
chain: not shown
notes: format FV-2
With B15, the binding result in assay [8] is “binds”.
